# Measurements taken from PubChem BioAssay AID686979 (National Center for Advancing Translational Sciences (NCATS), 2013).
# Hit rate of the full screen: of about 420,000 compounds, about 50,000 (12%) were called active. The shares of active, inactive and inconclusive entries below differ from those in the screen. Calls come from the whole dose curve; as a rule, active = well fitted inhibition curve with a large enough effect; inconclusive = small, poorly fitted or top-dose-only effect; inactive = flat fitted curve, though single readings scatter. Potencies of inconclusive entries are left out as doubtful fits.
# Assay: qHTS for Inhibitors of human tyrosyl-DNA phosphodiesterase 1 (TDP1): qHTS in cells in presence of CPT; note: nearly all actives have a fitted effect of over 55% in size
# Conditions: chicken DT40 Tdp1-/-;hTDP1 cells + 20 nM CPT, ATP luminescence, 48 h; activity change, negative = growth inhibition: at 46.2 µM (top of the series)
# In short: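 Chicken DT40 Tdp1-/- cells stably complemented with human TDP1 were seeded at 400 cells/well in medium containing 20 nM camptothecin, exposed to pin-transferred compounds, and grown at 37 °C for at least 48 hr. Viability was read as ATP luminescence.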
# % is set by controls: 0 for no effect and ±100 for the full control effect; potency is the fitted concentration of half-maximal effect; tags give direction and shape of the fitted curve.
Compound,"activity change, negative = growth inhibition",Potency
CCOc1cc(S(=O)(=O)NCc2ccc3c(c2)OCO3)ccc1F,inactive: -15%,
COc1ccc2[nH]c(=O)c(CN(Cc3cccnc3)C(=S)NCC3CCCO3)cc2c1 (centres undefined),,active: 18.4 µM
COc1ccccc1NC(=O)CN1CC(=O)Nc2ccccc21,inactive: -0.219%,
CCn1cc2nc(SCc3ccc(F)cc3)n(Cc3ccc(Cl)cc3)c(=O)c2n1,,active: 6.51 µM
CCc1nnc(NC(=O)c2cccc(S(=O)(=O)N3CCN(C)CC3)c2)s1,,"inconclusive [inhibitor, single point]"
Fc1ccc(N2CCN(/C=C/c3nnnn3-c3ccccc3)CC2)cc1,inconclusive: -31% [inhibitor],
Cc1cccn2c(=O)nc(SCC(=O)N3CCCCCC3)nc12,inactive: -23.7%,
Cc1ccc(-n2ncc3c2CC(C)(C)CC3NC(=O)CCCN2CCCC2=O)cc1 (centres undefined),inconclusive: -30.8% [inhibitor],
O=C(Nc1ccc(C(=O)N2CCC(O)(c3ccc(Cl)c(C(F)(F)F)c3)CC2)cc1)c1ccc(Br)o1,,"inconclusive [inhibitor, single point]"
CCN1CCN(S(=O)(=O)c2ccc(Cl)c(C(=O)N(C)Cc3ccc(C(C)(C)C)cc3)c2)CC1,,"inconclusive [inhibitor, single point]"
CC1CN(C(=O)c2ccc(Oc3ccccc3)cc2)CC(C)O1 (centres undefined),,"inconclusive [inhibitor, single point]"
O=C(NCCc1cccc(Cl)c1)c1cccc(-n2cnnn2)c1,,"inconclusive [inhibitor, single point]"
CCOc1ccc(CCNC(=O)COC(=O)c2ccc(OC)c(OC)c2OC)cc1OCC,inactive: -12.4%,
CC1C(=O)N(Cc2cn(Cc3ccco3)nn2)CCS(=O)(=O)N1Cc1ccc(-c2ccc(F)nc2)cc1 (centres undefined),inactive: -26.6%,
Oc1[nH]c2ccccc2c1C=Nc1ccc2c(c1)OCO2,,"inconclusive [inhibitor, partial curve, poor fit]"
CC(C)CN(C(=O)CCC1CCCCC1)c1c(N)n(CC(C)C)c(=O)[nH]c1=O,inconclusive: -30.3% [inhibitor],
COc1cc(/C=N/NC(=O)c2sc3nc(C)cc(C)c3c2N)ccc1O,,"inconclusive [inhibitor, full curve]"
Cc1ccc(S(=O)(=O)N(C)c2ccc(OCC(=O)Nc3ccc(C(=O)N(C)C)cc3)cc2)cc1C,,"inconclusive [inhibitor, single point]"
CC(C)C[C@H](NC(=O)c1nc[nH]c1C(=O)NCCNC(=O)OC(C)(C)C)C(=O)CNCCNC(=O)c1[nH]cnc1C(=O)N[C@@H](C)C(=O)OC(C)(C)C,,active: 23.1 µM
